{
  "source": "PubChem BioAssay (NCATS)",
  "note": "Several values for one entry are separate records, joined by “and”; a condition that tells them apart may be missing. Identical values can stand only once. Inconclusive results, whose numbers are uncertain, are shown with a selection of clear calls. A potency beside an inconclusive call is a rough fit, not a confirmed value. Activity calls are given as the source filed them. The call rests on the fitted dose curve; in most records, active means well fitted curve in the direction sought with a large enough effect; inconclusive means small, poorly fitted or top-dose-only effect, or another doubt; inactive means no such curve, though single readings can be large; an effect the other way counts as inactive or inconclusive. Potency means the concentration at half of the fitted maximal effect; tags describe the fitted curve by direction and shape.",
  "data": [
    {"tested_on": "not listed separately", "assay": "Primary qHTS for inhibitors of nuclear receptor binding SET domain protein 2 (NSD2) in an RCH-ACV wild type WT cells (2C) (AID 1645877); further: nearly all actives have a fitted effect of over 70% in size; on activity change, negative = cell killing: on the % scale 0 is the no-effect control and ±100 the full control effect", "details": "RCH-ACV NSD2 WT (2C) viability, CellTiter-Glo, 72 h; activity change, negative = cell killing: at 44.9 µM (top of the series) unless noted; series mostly up to 44.9 µM", "values": [
      {"smiles": "Cc1ccc(C(C)C)cc2c(C)ccc1-2", "Potency": "inconclusive: 33.5 µM [inhibitor, partial curve, poor fit]"},
      {"smiles": "C[C@@H]1C[C@H]2[C@@H]3CCC4=CC(=O)C=C[C@]4(C)[C@@]3(F)[C@@H](O)C[C@]2(C)[C@@]1(O)C(=O)CO", "Potency": "inconclusive: 0.0211 µM [inhibitor, full curve, poor fit]"},
      {"smiles": "Cc1ccc(C(=O)N(CCCN)[C@@H](c2nc3cc(Cl)ccc3c(=O)n2Cc2ccccc2)C(C)C)cc1", "Potency": "active: 0.0132 µM"},
      {"smiles": "NC(N)=NN=C(/C=C/c1ccc([N+](=O)[O-])o1)/C=C/c1ccc([N+](=O)[O-])o1", "Potency": "active: 0.531 µM"},
      {"smiles": "O[C@@H](c1cc(C(F)(F)F)nc2c(C(F)(F)F)cccc12)[C@H]1CCCCN1", "Potency": "active: 7.5 µM"},
      {"smiles": "C#Cc1cccc(Nc2ncnc3cc(OCCOC)c(OCCOC)cc23)c1", "Potency": "inconclusive: 11.8 µM [inhibitor, partial curve]"},
      {"smiles": "C=CCNC1=C2C[C@@H](C)C[C@H](OC)[C@H](O)[C@@H](C)/C=C(\\C)[C@H](OC(N)=O)[C@@H](OC)/C=C\\C=C(/C)C(=O)NC(=CC1=O)C2=O", "Potency": "active: 2.63 µM"},
      {"smiles": "C[C@]12C=CC(=O)C=C1CC[C@H]1[C@@H]3C[C@@H](O)[C@](O)(C(=O)CO)[C@@]3(C)C[C@H](O)[C@@]12F", "Potency": "active: 1.68 µM"},
      {"smiles": "CC(C)c1nn(-c2c(Cl)cccc2Cl)c2nc(Cc3ccc(OCCO)cc3)[nH]c(=O)c12", "Potency": "active: 25.8 nM and active: 41.7 nM"},
      {"smiles": "CCOC(=O)C1=C(C)NC(C)=C(C(=O)OC)C1c1cccc([N+](=O)[O-])c1", "note": "(stereo not drawn)", "Potency": "inconclusive: 33.5 µM [inhibitor, single point]"},
      {"smiles": "COc1cc2c(Nc3ccc(Br)cc3F)ncnc2cc1OCC1CCN(C)CC1", "Potency": "inconclusive: 29.9 µM [inhibitor, single point]"},
      {"smiles": "CCN1CCN(CC(=O)Nc2ccc(-c3cccc4c(=O)cc(N5CCOCC5)oc34)c3sc4ccccc4c23)CC1", "Potency": "active: 94.4 nM and active: 257 nM"},
      {"smiles": "C[C@H](CCC(=O)O)[C@H]1CCC2C3C[C@H](O)[C@@H]4C[C@H](O)CC[C@]4(C)C3CC[C@@]21C", "note": "(stereo partly drawn)", "activity change, negative = cell killing": "inactive: 9.47%"},
      {"smiles": "CCN(CC)C(=O)N1CCN(C)CC1", "Potency": "inconclusive: 18.8 µM [inhibitor, single point]"},
      {"smiles": "C[C@@H](O)[C@H]1C(=O)N2C(C(=O)O)=C(S[C@@H]3CN[C@H](C(=O)N(C)C)C3)[C@H](C)[C@H]12", "Potency": "inactive"},
      {"smiles": "OCCN1C[C@H](O)[C@@H](O)[C@H](O)[C@H]1CO", "Potency": "inactive"},
      {"smiles": "Cc1ccc(C(=O)C(C)CN2CCCCC2)cc1", "note": "(stereo not drawn)", "Potency": "active: 21.1 µM and inconclusive: 20.5 µM [inhibitor, single point]"},
      {"smiles": "C#C[C@]1(O)CC[C@H]2[C@@H]3CCC4=C/C(=N/O)CC[C@@H]4[C@H]3CC[C@@]21CC", "Potency": "inconclusive: 29 µM [inhibitor, single point]"},
      {"smiles": "COC(=O)c1cccnc1", "Potency": "inconclusive: 33.5 µM [inhibitor, partial curve, poor fit]"},
      {"smiles": "CN[C@H]1CCc2cc(OC)c(OC)c(OC)c2-c2ccc(OC)c(=O)cc21", "Potency": "active: 0.118 µM"},
      {"smiles": "CN(C)c1ccc(-c2nc3ncc(Cl)c(N4CCN(CC(=O)Nc5nccs5)CC4)c3[nH]2)cc1", "Potency": "inconclusive: 1.02 µM [inhibitor, full curve]"},
      {"smiles": "c1cc(CN2CCCNCCNCCCNCC2)ccc1CN1CCCNCCNCCCNCC1", "activity change, negative = cell killing": "inactive: -25%"}
    ]},
    {"molecular_target": "Rap guanine nucleotide exchange factor 4 (Homo sapiens) (UniProt Q8WZA2)", "sequence (Q8WZA2 whole entry, looked up)": "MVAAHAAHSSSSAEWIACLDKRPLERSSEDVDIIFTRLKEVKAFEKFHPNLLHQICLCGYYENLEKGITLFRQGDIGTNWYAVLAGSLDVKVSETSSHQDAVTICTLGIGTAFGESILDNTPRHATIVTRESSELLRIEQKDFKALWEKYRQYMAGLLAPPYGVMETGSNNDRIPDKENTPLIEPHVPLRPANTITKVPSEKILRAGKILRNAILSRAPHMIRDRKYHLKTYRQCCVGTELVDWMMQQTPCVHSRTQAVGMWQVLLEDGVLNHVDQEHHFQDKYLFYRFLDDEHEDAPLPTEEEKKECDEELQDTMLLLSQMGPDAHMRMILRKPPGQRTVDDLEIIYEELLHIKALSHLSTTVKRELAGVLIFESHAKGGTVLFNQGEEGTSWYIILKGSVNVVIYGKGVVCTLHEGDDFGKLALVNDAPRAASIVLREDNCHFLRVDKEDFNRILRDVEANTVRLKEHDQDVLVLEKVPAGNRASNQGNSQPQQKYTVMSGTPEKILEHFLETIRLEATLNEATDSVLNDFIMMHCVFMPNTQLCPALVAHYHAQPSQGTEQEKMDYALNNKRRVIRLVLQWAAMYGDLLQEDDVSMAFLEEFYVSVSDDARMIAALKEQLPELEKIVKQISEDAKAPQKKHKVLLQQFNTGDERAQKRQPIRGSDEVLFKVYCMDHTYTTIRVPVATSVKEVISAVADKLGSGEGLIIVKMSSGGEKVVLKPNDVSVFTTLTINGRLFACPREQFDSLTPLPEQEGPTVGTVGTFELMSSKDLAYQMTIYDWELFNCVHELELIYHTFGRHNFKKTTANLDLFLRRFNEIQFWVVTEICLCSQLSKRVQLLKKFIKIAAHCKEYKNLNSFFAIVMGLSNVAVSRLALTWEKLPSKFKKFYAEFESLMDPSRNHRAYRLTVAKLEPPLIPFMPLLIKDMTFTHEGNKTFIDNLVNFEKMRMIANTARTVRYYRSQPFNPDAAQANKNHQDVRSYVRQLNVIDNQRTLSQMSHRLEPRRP", "assay": "Confirmatory qHTS for agonist of cAMP-regulated guanine nucleotide exchange factor 4 (EPAC2) (AID 1645884);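 further: nucleotide exchange releases bodipy-GDP from Rap1 and this lowers its fluorescence; nearly all actives have a fitted effect of over 65% in size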", "details": "EPAC2 GEF activity, Rap1B-BODIPY-GDP fluorescence", "values": [
      {"smiles": "COC(=O)[C@H]1[C@H]2C[C@@H]3c4[nH]c5cc(OC)ccc5c4CCN3C[C@H]2C[C@@H](OC(=O)/C=C/c2cc(OC)c(OC)c(OC)c2)[C@@H]1OC", "Potency": "inconclusive: 16 µM [activator, partial curve, poor fit]"},
      {"smiles": "CC(=O)[C@]1(O)Cc2c(O)c3c(c(O)c2[C@@H](O[C@H]2C[C@H](N)[C@H](O)[C@H](C)O2)C1)C(=O)c1c(O)cccc1C3=O", "Potency": "inconclusive: 31.6 µM [activator, partial curve] and active: 79.3 µM"},
      {"smiles": "CCOC(=O)C1=C(C)NC(C)=C(C(=O)OC)C1c1cccc([N+](=O)[O-])c1", "note": "(stereo not drawn)", "Potency": "inconclusive: 44.6 µM [activator, partial curve, poor fit]"}
    ]},
    {"tested_on": "not listed separately", "assay": "NCATS anti-infectives library activity on HEK293 viability as a counter-qHTS vs the C. elegans viability qHTS (AID 1745854)", "details": "HEK293 viability counter-screen; series mostly up to 41.8 µM; activity change, negative = cytotoxicity: at the top concentration", "summary_of_the_method": "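CellTiter-Glo luminescence, read on a CCD imager, scored viability of HEK293 cells after 24 hr compound exposure at 37C. Library tested in several concentrations, 1:5 steps, up to 41.7 uM; digitonin served as control.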", "values": [
      {"smiles": "O=CCCCC=O", "Potency": "inconclusive: 35.5 µM [cytotoxic, partial curve, poor fit]"},
      {"smiles": "NC(=O)c1noc([C@H](CCCC2CCCCC2)CC(=O)NO)n1", "Potency": "inconclusive: 12.6 µM [cytotoxic, partial curve, poor fit]"},
      {"smiles": "c1ccc(CNc2nc(NCc3ccccc3)c3ccccc3n2)cc1", "Potency": "active: 22.4 µM"},
      {"smiles": "O[C@@H](c1cc(C(F)(F)F)nc2c(C(F)(F)F)cccc12)[C@H]1CCCCN1", "Potency": "inconclusive: 31.6 µM [cytotoxic, single point]"},
      {"smiles": "C#Cc1cccc(Nc2ncnc3cc(OCCOC)c(OCCOC)cc23)c1", "Potency": "inconclusive: 14.1 µM [cytotoxic, single point]"},
      {"smiles": "CC(C)C[C@H](NC(=O)[C@H](Cc1ccccc1)NC(=O)c1cnccn1)B(O)O", "Potency": "inconclusive: 0.02 µM [cytotoxic, full curve, poor fit]"},
      {"smiles": "Nc1c2ccccc2nc2ccccc12", "Potency": "inconclusive: 11.2 µM [cytotoxic, single point]"},
      {"smiles": "CN1CC[C@@H](c2c(O)cc(O)c3c(=O)cc(-c4ccccc4Cl)oc23)[C@@H](O)C1", "Potency": "inconclusive: 0.141 µM [cytotoxic, full curve]"}
    ]}
  ]
}
